Counter-ions that a name gives are not always drawn. ± gives the standard deviation of the averaged measurements. The full ranking holds about 2,000 compounds; the median of “relative cell viability vs DMSO, compound alone” is about 1.1, and the lowest 2% start at about 0.29. This is one part of the list.
The compounds below were run on TE10 (assay: relative cell viability vs DMSO, compound alone (fraction); TE10 is an esophageal squamous carcinoma line; higher = less cytotoxic). Details: 2 µM; 48 h.
Procedure: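 TE10 ESCC cells (1,000/well, 384-well plates) were treated with Selleck bioactive library compounds at 2 uM alone for 48 h. Viability was read by CellTiter-Glo and expressed relative to DMSO wells. Two technical replicates (A, B).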

SMILES | relative cell viability
CCOC(=O)C1=C(COCCN)NC(C)=C(C(=O)OC)C1c1ccccc1Cl (configuration not stated) [Amlodipine] | 1.09 ± 0.017
CCOC(=O)C1=C(COCCN)NC(C)=C(C(=O)OC)C1c1ccccc1Cl (configuration not stated) [Amlodipine besylate (Norvasc)] | 0.9751 ± 0.0056
Cc1ncc(CCCN(C)C)cc1Nc1ncc2c(n1)-c1ccc(C(F)(F)F)cc1NC(=S)C2 | 1 ± 0.073
Oc1ccc(/C=C/c2cc(O)cc(O)c2)cc1 [Resveratrol] | 0.959 ± 0.017
CN1[C@@H]2CC[C@H]1C[C@@H](OC(=O)c1c[nH]c3ccccc13)C2 [Tropisetron] | 0.99342 ± 0.00029
Cc1cccc(C)c1OCC(C)N (configuration not stated) [Mexiletine HCl] | 1.03 ± 0.04
COc1ccccc1OCC(O)CO (configuration not stated) [Guaifenesin] | 0.9417 ± 0.0054
Nc1nc(CC(=O)Nc2ccc(CCNC[C@H](O)c3ccccc3)cc2)cs1 [Mirabegron] | 0.954 ± 0.11
CC[C@]1(O)C[C@H]2CN(CCc3c([nH]c4ccccc34)[C@@](C(=O)OC)(c3cc4c(cc3OC)N(C=O)[C@H]3[C@@](O)(C(=O)OC)[C@H](OC(C)=O)[C@]5(CC)C=CCN6CC[C@]43[C@@H]65)C2)C1 [Vincristine] | 0.74 ± 0.16
CC(=O)[C@H]1CC[C@H]2[C@@H]3C=CC4=CC(=O)CC[C@@]4(C)[C@@H]3CC[C@]12C [Dydrogesterone] | 0.971 ± 0.21
Cc1cc(=O)[nH]c(=S)[nH]1 [Methylthiouracil] | 1.19 ± 0.059
COc1ccccc1Oc1c(NS(=O)(=O)c2ccc(C(C)(C)C)cc2)nc(-c2ncccn2)nc1OCCO [Bosentan] | 1.1 ± 0.021
COc1ccccc1Oc1c(NS(=O)(=O)c2ccc(C(C)(C)C)cc2)nc(-c2ncccn2)nc1OCCO [Bosentan Hydrate] | 1.07 ± 0.076
COc1cc(N2CCC(N(C)C)CC2)ccc1Nc1ncc(Cl)c(Nc2ccccc2P(C)(C)=O)n1 | 0.862 ± 0.044
COc1cc2c(Oc3ccc(NC(=O)C4(C(=O)Nc5ccc(F)cc5)CC4)cc3F)ccnc2cc1OCCCN1CCOCC1 | 0.506 ± 0.04
C[S+]([O-])c1ccc(-c2nc(-c3ccc(F)cc3)c(-c3ccncc3)[nH]2)cc1 (configuration not stated) | 1.31 ± 0.085
CN1CCC[C@@H]1Cc1c[nH]c2ccc(CCS(=O)(=O)c3ccccc3)cc12 [Eletriptan HBr] | 0.802 ± 0.024
CCC[C@@H]1C[C@@H](C(=O)N[C@@H]([C@H]2O[C@H](SC)[C@H](O)[C@@H](O)[C@H]2O)[C@H](C)Cl)N(C)C1 [Clindamycin HCl] | 1.1243 ± 0.00035
CCC[C@@H]1C[C@@H](C(=O)N[C@@H]([C@H]2O[C@H](SC)[C@H](O)[C@@H](O)[C@H]2O)[C@H](C)Cl)N(C)C1 [Clindamycin] | 1.1187 ± 0.00023
CO[C@H]1/C=C\C=C(/C)C(=O)NC2=CC(=O)C(NCCN(C)C)=C(C[C@@H](C)C[C@H](OC)[C@H](O)[C@@H](C)/C=C(\C)[C@@H]1OC(N)=O)C2=O [17-DMAG (Alvespimycin) HCl] | 0.535 ± 0.043
O=C(N[C@H](CO)[C@H](O)c1ccc([N+](=O)[O-])cc1)C(Cl)Cl [Chloramphenicol] | 1.021 ± 0.0098
O=C(O)CCNC(=O)c1ccccc1 [Betamipron] | 1.08 ± 0.022
C=C1/C(=C\C=C2/CCC[C@]3(C)[C@@H]([C@H](C)CCCC(C)C)CC[C@@H]23)C[C@@H](O)C[C@@H]1O [Alfacalcidol] | 1.15 ± 0.056
CCOc1ccc2ccccc2c1C(=O)N[C@@H]1C(=O)N2[C@@H]1SC(C)(C)[C@@H]2C(=O)O [Nafcillin Sodium] | 1.02 ± 0.25

SMILES | relative cell viability
CCN(CC)CCNC(=O)c1cc(Cl)c(N)cc1OC [MetoclopraMide HCl] | 1.16 ± 0.024
CC1=NN(c2ccccc2)C(=O)C1 [Edaravone] | 1.22 ± 0.066
COc1ccc(O)cc1 [Mequinol] | 1.12 ± 0.06
Cc1ccc(-c2nn(C(C)(C)C)c3ncnc(N)c23)cc1 | 1.03 ± 0.058
CCCCCCOC(=O)NC(=N)c1ccc(NCc2nc3cc(C(=O)N(CCC(=O)OCC)c4ccccn4)ccc3n2C)cc1 [Dabigatran Etexilate] | 0.99 ± 0.045
NC(=O)c1cccc(-c2cc(Nc3ccc(OC(F)(F)F)cc3)ncn2)c1 | 1.06 ± 0.067
CCN(CC)CCOC(=O)c1ccc(N)cc1Cl [Chloroprocaine HCl] | 1.15 ± 0.027
CC1(C)O[C@H]2CC(=O)OC[C@]23[C@H]2CC[C@@]4(C)[C@H](c5ccoc5)OC(=O)[C@H]5O[C@]54[C@]2(C)C(=O)C[C@@H]13 [Limonin] | 1.125 ± 0.0024
C#Cc1cccc(Nc2ncnc3cc(OCCOC)c(OCCOC)cc23)c1 [Erlotinib HCl (OSI-744)] | 1.18 ± 0.11
C#Cc1cccc(Nc2ncnc3cc(OCCOC)c(OCCOC)cc23)c1 [Erlotinib] | 1.08 ± 0.024
COc1ccc(Cn2ccc3ccc(C(=O)NO)cc32)cc1 | 0.9751 ± 0.0083
Cc1onc(-c2ccccc2Cl)c1C(=O)N[C@@H]1C(=O)N2[C@@H]1SC(C)(C)[C@@H]2C(=O)O [Cloxacillin Sodium] | 0.759 ± 0.014
COC(=O)C1=CO[C@@H](O[C@@H]2O[C@H](CO)[C@@H](O)[C@H](O)[C@H]2O)[C@@H]2C(CO)=CC[C@H]12 [Geniposide] | 1.07 ± 0.059
CN[C@@H]1[C@H](O)[C@H](NC)[C@H]2O[C@@]3(O)C(=O)C[C@@H](C)O[C@H]3O[C@@H]2[C@H]1O [Spectinomycin HCl] | 1.03 ± 0.12
NS(=O)(=O)c1cc2c(cc1Cl)NC(C(Cl)Cl)NS2(=O)=O (configuration not stated) [Trichlormethiazide] | 0.891 ± 0.072
NC(=O)c1cnc(N[C@@H]2CCCC[C@@H]2N)nc1Nc1cccc(-n2nccn2)c1 | 1.13 ± 0.016
CC(C)C(=O)Oc1ccc(CO)cc1[C@H](CCN(C(C)C)C(C)C)c1ccccc1 [Fesoterodine Fumarate] | 1.12 ± 0.031
Cc1nn(-c2ccccc2)c(C)c1C=NN1CCN(Cc2ccccc2)CC1 | 1.04 ± 0.085
Cc1ccc(NC(=O)c2ccc(CN3CCN(C)CC3)cc2)cc1Nc1nccc(-c2cccnc2)n1 [Imatinib Mesylate (STI571)] | 1.18 ± 0.042
Cc1ccc(NC(=O)c2ccc(CN3CCN(C)CC3)cc2)cc1Nc1nccc(-c2cccnc2)n1 [Imatinib (STI571)] | 1.18 ± 0.064
O=C(O)C(=O)O.[NH-][C@@H]1CCCC[C@H]1[NH-].[Pt+2] [Oxaliplatin] | 0.99 ± 0.025
O=C(NCC1(c2nc(-c3ccccc3)cs2)CCOCC1)c1cccc(-c2noc(C(F)(F)F)n2)c1 | 0.8055 ± 0.0031
CCOC(=O)O[C@]1(C(=O)OCCl)CC[C@H]2[C@@H]3CCC4=CC(=O)C=C[C@]4(C)[C@H]3[C@@H](O)C[C@@]21C [Loteprednol etabonate] | 0.909 ± 0.013
CCc1c2c(nc3ccc(O)cc13)-c1cc3c(c(=O)n1C2)COC(=O)[C@]3(O)CC | 0.501 ± 0.03

SMILES | relative cell viability
Clc1ccc(C(Cn2ccnc2)OCc2ccsc2Cl)c(Cl)c1 (configuration not stated) [Tioconazole] | 0.893 ± 0.026
COc1cc(C(=O)N2CCC(N3CCN(C)CC3)CC2)ccc1Nc1ncc2c(n1)N(C)c1ccccc1C(=O)N2C | 1.01 ± 0.065
COc1cc2c(c(OC)c1OC)-c1c(cc3c(c1OC)OCO3)CC(C)C(C)C2 (configuration not stated) [Schisandrin B (Sch B)] | 1.08 ± 0.048
CCOC(=O)c1cnc2ccc(-c3cncc(NS(=O)(=O)c4ccccc4)c3)cn12 | 0.50898 ± 0.00049
C[C@@H](Nc1cc(F)cc(F)c1)c1cc(C(=O)N(C)C)cc2c(=O)cc(N3CCOCC3)oc12 | 0.765 ± 0.14
Cc1c(C(=O)NN2CCCCC2)nn(-c2ccc(Cl)cc2Cl)c1-c1ccc(Cl)cc1 [Rimonabant] | 0.908 ± 0.047
COc1cc2c(cc1OC)CC(=O)N(CCCN(C)C[C@H]1Cc3cc(OC)c(OC)cc31)CC2 [Ivabradine HCl] | 1.13 ± 0.018
CN1CC(=O)N2[C@H](c3ccc4c(c3)OCO4)c3[nH]c4ccccc4c3C[C@@H]2C1=O [Tadalafil] | 1.15 ± 0.033
CCN(C(=O)c1c(O)c2c(Cl)cccc2n(C)c1=O)c1ccccc1 [Laquinimod] | 1.12 ± 0.027
CCc1nc(N)nc(N)c1-c1ccc(Cl)cc1 [Pyrimethamine] | 0.754 ± 0.043
CC(C)NCC(O)COc1ccc(CCOCC2CC2)cc1 (configuration not stated) [Betaxolol hydrochloride (Betoptic)] | 0.752 ± 0.047
CC(C)(OCc1nn(Cc2ccccc2)c2ccccc12)C(=O)O [Bindarit] | 1.1 ± 0.053
CCCN1CCCC[C@H]1C(=O)Nc1c(C)cccc1C [Ropivacaine HCl] | 1.167 ± 0.0022
CC(NC(=O)c1ccccc1/N=C/c1c(O)ccc2ccccc12)c1ccccc1 (configuration not stated) [Sirtinol] | 1.09 ± 0.017
Cc1cccc(-c2[nH]c(C(C)(C)C)nc2-c2ccc3c(c2)OCO3)n1 | 1.1 ± 0.051
COc1cc(OC2CCN(C)CC2)ccc1Nc1ncc2c(n1)n(C1CCCC1)c(=O)n2C | 1.08 ± 0.062
C#CCN[C@@H]1CCc2ccccc21 [Rasagiline Mesylate] | 1.09 ± 0.062
COc1ccc(NS(=O)(=O)c2sc3ccc(Cl)cc3c2C)cc1N1CCNCC1 | 1.07 ± 0.021
CN1c2cc(O)c(N=NC(N)=O)cc2CC1S(=O)(=O)O (configuration not stated) [Carbazochrome sodium sulfonate (AC-17)] | 0.736 ± 0.084
CCOc1nc2cccc(C(=O)OCc3oc(=O)oc3C)c2n1Cc1ccc(-c2ccccc2-c2noc(=O)[nH]2)cc1 [Azilsartan Medoxomil] | 1.16 ± 0.06
NC(=O)c1ccc(I)c([N+](=O)[O-])c1 [Iniparib (BSI-201)] | 1.18 ± 0.025
O=C(O)c1cc(/N=N/c2ccc(S(=O)(=O)Nc3ccccn3)cc2)ccc1O [Sulfasalazine] | 1.04 ± 0.026
C=C1c2cccc(O)c2C(O)=C2C(=O)[C@]3(O)C(O)=C(C(N)=O)C(=O)[C@@H](N(C)C)[C@@H]3[C@@H](O)[C@H]12 [Methacycline HCl] | 1.14 ± 0.027
C/C(=C\C(=O)OCCCCCCCCC(=O)O)C[C@@H]1OC[C@H](C[C@@H]2O[C@H]2[C@@H](C)[C@H](C)O)[C@@H](O)[C@H]1O [Mupirocin] | 1.203 ± 0.0043
